Hit rate of the full screen: of about 360,000 compounds, about 7,500 (2.1%) were called active. The inconclusive results got no clear call from the source; some entries with a clear call stand among them for comparison. The call rests on the fitted dose curve; in most records, active means well fitted cell-killing curve with a large enough effect; inconclusive means small, poorly fitted or top-dose-only effect, or effect the other way, or another doubt; inactive means no such curve, though single readings can be large or run the other way. No potency is given beside an inconclusive call; the fits are too rough.
Experiment: qHTS for induction of synthetic lethality in tumor cells producing 2HG: qHTS for the HT-1080-IDH1KD cell line;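 on activity, negative = toxicity: 0% = DMSO wells and -100% = cell-free medium wells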
Details: HT-1080 IDH1 knockdown viability, ATP luminescence, 48 h; activity, negative = toxicity: at 46.1 µM (top of the series) unless noted
Method in brief: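 In this qHTS, HT-1080 cells depleted of IDH1 are exposed for 48 h at 37 °C to compound titrations. Toxicity is scored from CellTiter-Glo luminescence, with DMSO as full viability and medium alone as none.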
Potency means the concentration at half of the fitted maximal effect; tags describe the fitted curve by direction and shape.

| Structure (SMILES) | Potency | activity, negative = toxicity |
| --- | --- | --- |
| Cc1cc(NC(=O)CCN2C(=O)c3ccccc3C2=O)no1 | inactive |  |
| CCOC(=O)N1CCN(S(=O)(=O)c2ccc(C(=O)Nc3sc4c(c3C(=O)OC)CCN(C)C4)cc2)CC1 | inconclusive [cytotoxic, single point] |  |
| Cc1nn(Cc2cccc(C(=O)Nc3ccn(Cc4ccccc4F)n3)c2)c(C)c1[N+](=O)[O-] | inconclusive [cytotoxic, single point] |  |
| Cc1c(C(=O)Nc2ccc(F)cc2)c2ccccn2c1CCc1ccncc1 | inactive |  |
| COc1ccc(C(C)(O)c2nc(/C=C/c3ccccc3)cs2)cc1 (stereo not given) | inconclusive [cytotoxic, single point] |  |
| COc1cc(/C=N/NC(=O)c2cc(C3CC3)[nH]n2)ccc1O | inactive |  |
| C=CCc1cc(Cl)ccc1OCCOCCN(C)C | inconclusive [cytotoxic, single point] |  |
| C=CCn1c(=O)c(C(=O)NCCN(CC)CC)c(O)c2ccccc21 | inconclusive [cytotoxic, single point] |  |
| COc1cccc(C2c3cc4c(cc3OC(NNC(N)=O)C2C)OCO4)c1O (stereo not given) | active: 6.51 µM |  |
| COc1ccc(C(=O)Nc2cc(C)on2)cc1OC | inconclusive [cytotoxic, single point] |  |
| CC(C)C(NC(=S)NCc1ccccc1)C(=O)O (stereo not given) | inactive |  |
| O=c1sc(/C=N/Nc2ccccc2)c(Cl)n1Cc1ccccc1 | active: 13 µM |  |
| Cc1ccccc1C(=O)NC(CC(C)C)C(=O)OCC(=O)c1c(N)n(C)c(=O)n(C)c1=O (stereo not given) | inactive |  |
| Cc1cccnc1Nc1ncnc(N)c1[N+](=O)[O-] | inconclusive [rising, partial curve] |  |
| COc1cc2c(cc1OC)CN(CC(=O)Nc1ccccc1SC)CC2 | inactive |  |
| COc1ccccc1C(=O)Nc1nc(-c2ccc(S(=O)(=O)N3CCOCC3)cc2)cs1 | inconclusive [cytotoxic, partial curve] |  |
| Clc1ccccc1Cn1nnc2c(N3CCCC3)ncnc21 | active: 20 µM |  |
| Cc1cc2nc(C(C)(C)C)c(Cc3ccsc3)n2c(C)c1Br | inconclusive [cytotoxic, single point] |  |
| Cc1ccc(OCc2nnc(SCC(=O)c3ccccc3)n2-c2ccccc2)cc1 | inconclusive [cytotoxic, single point] |  |
| CC1(C)OC(=O)C2=C(C[C@@H](C3CCCCC3)O[C@@H]2c2ccc(Cl)cc2)O1 | inconclusive [cytotoxic, single point] |  |
| COC(=O)c1ccc2nc(C3CCCCC3)c(Cc3ccccc3C(F)(F)F)n2c1 | inconclusive [cytotoxic, single point] |  |
| CCc1ccc(C(=O)NNc2ccc(F)cc2)cc1 | inconclusive [cytotoxic, partial curve] |  |
| COc1ccc(NC(=O)N(C)[C@H]2C[C@H]3c4[nH]c5ccc(-c6ccc7c(c6)OCO7)cc5c4CCN3C[C@H]2[C@H](C)O)cc1 | active: 23.1 µM |  |
| CC(Sc1ccc(Cl)cc1)C(=O)NNC(=O)c1ccccc1O (stereo not given) | inconclusive [cytotoxic, single point] |  |

| Structure (SMILES) | Potency | activity, negative = toxicity |
| --- | --- | --- |
| O=C(N/N=C/C=C/c1ccccc1)c1cccc(Br)c1 |  | inconclusive: -39.1% |
| O=C(C1CCCN(c2ncnc3c2nc2n3CCCCC2)C1)N1CCN(c2cccc(Cl)c2)CC1 (stereo not given) | inconclusive [cytotoxic, single point] |  |
| COCc1cc(NCc2ccc(Cl)cc2)nc(C)n1 | inactive |  |
| COc1ccc(C[C@H]2CN3C(=NC[C@@H]3Cc3ccc(O)cc3)N2CCNC(=O)c2ccc(C)c(Br)c2)cc1 | inconclusive [cytotoxic, single point] |  |
| O=C(NC(Cc1ccccc1)c1nc2ccccc2[nH]1)c1ccc(Cl)c([N+](=O)[O-])c1 (stereo not given) | inconclusive [cytotoxic, single point] |  |
| OC(CN1CCCCC1)Cn1c2ccc(Cl)cc2c2cc(Cl)ccc21 (stereo not given) | inconclusive [cytotoxic, single point] |  |
| CC1CN2C(c3ccc([N+](=O)[O-])cc3)=CSC2=N1 (stereo not given) | inactive |  |
| CCc1ccc2[nH]c(=O)c(CN(CCCN3CCOCC3)C(=O)Nc3ccc(Cl)cc3)cc2c1 | inconclusive [cytotoxic, single point] |  |
| NC(=O)C1CCN(C2=C(NS(=O)(=O)c3ccc(Br)cc3)C(=O)c3ccccc3C2=O)CC1 | inconclusive [cytotoxic, single point] |  |
| Cc1ccc(NC(=Nc2ccc(Br)cc2)N2CCOCC2)cc1C | inconclusive [cytotoxic, single point] |  |
| CCOC(=O)c1ccccc1OCc1cc(/C=N/n2cncn2)ccc1OC | inconclusive [cytotoxic, single point] |  |
| CC(C)(C)c1ccc(OCC(O)CN(CCO)CC(O)Cn2ccc3ccccc32)cc1 (stereo not given) | inconclusive [cytotoxic, single point] |  |
| CCOC(=O)/C=C/C(=O)Nc1ccc(Oc2ccccc2)cc1 | active: 16.4 µM |  |
| CC(/C=C/c1ccccc1F)=N\NC(=O)c1cccc(F)c1 | inconclusive [cytotoxic, single point] |  |
| CC(C)C[C@H](NC(=O)c1[nH]cnc1C(=O)N[C@@H](C)C(=O)OC(C)(C)C)C(=O)OCc1ccccc1 | inconclusive [cytotoxic, single point] |  |
| Cn1c2c(c(=O)n(C)c1=O)C(C(F)(F)F)(C(F)(F)F)N=C(c1ccccc1Cl)N2 | inactive |  |
| CCOc1ccc(CSC2=NCCN2)cc1[N+](=O)[O-] | inconclusive [cytotoxic, single point] |  |
| Cc1nn(-c2ccccc2)c(C)c1/C=N/NC(=O)c1cc(C23CC4CC(CC(C4)C2)C3)[nH]n1 | inconclusive [cytotoxic, partial curve] |  |
| O=C1c2ccccc2C(=O)N1OCCCN1C(=O)c2ccccc2S1(=O)=O | inactive |  |
| CCOC(=O)N1CCN(C(=O)CN(c2ccccc2)S(C)(=O)=O)CC1 | inconclusive [rising, single point] |  |
| Cc1ccc(S(=O)(=O)N2CCC(=O)N(C(COCc3ccc(Cl)cc3Cl)Cc3ccccc3)CC2)cc1 (stereo not given) | inactive |  |
| O=C(CNC(=O)N1CC(=O)Nc2ccccc21)Nc1ccccc1F | inactive |  |
| CN(CC(=O)Nc1cccc(F)c1)C(=O)/C=C/c1cn(Cc2ccccc2)nc1-c1cccnc1 | inactive |  |
| Cc1ccc(-c2nnn(CC(=O)N(CC(=O)NC3CCCCC3)c3cccc(F)c3)n2)o1 | inactive |  |

| Structure (SMILES) | Potency | activity, negative = toxicity |
| --- | --- | --- |
| CCOCCCN(C(=O)Cn1nnc(-c2ccc(C)o2)n1)C(C(=O)NC1CCCC1)c1ccco1 (stereo not given) | inactive |  |
| CCN(CC)c1cc(C)c2cc(NC(=O)c3ccccc3OC)ccc2n1 | inconclusive [cytotoxic, single point] |  |
| CCn1nc(NC(=O)C(C)C)c2cc3cccc(C)c3nc21 | inactive |  |
| O=C(c1[nH]c(C(F)(F)F)nc1-c1ccccc1)N1CCN(c2ccccc2)CC1 | active: 2.06 µM |  |
| COc1cc2ccccc2cc1C(=O)N/N=C/c1cccs1 | active: 4.11 µM |  |
| CN(C)CCCN(Cc1ccccc1)C(=S)Nc1ccc(F)c(Cl)c1 | inconclusive [cytotoxic, partial curve, poor fit] |  |
| Cc1cc(C)c(OCCNC(=O)c2ccccc2Sc2ccccc2C#N)c(C)c1 | inactive |  |
| CCOC(=O)Cn1c(=N)n(CCOc2ccc3ccccc3c2)c2ccccc21 | inconclusive [cytotoxic, single point] |  |
| Cc1cccc2cc(CN(C(=S)NCC(C)C)C3CCCC3)c(=O)[nH]c12 | inactive |  |
| CCOc1ccc(NC(=O)C(C)Oc2ccccc2C(=O)Nc2cccc(Cl)c2Cl)cc1 (stereo not given) | inactive |  |
| O=C(O)c1ccc(N/N=C/c2ccc(-c3ccccc3Cl)o2)cc1 | active: 23.1 µM |  |
| CCOC(=O)c1ccc(NC(=O)c2cn(-c3ccccc3)nc2-c2ccncc2)cc1 | inconclusive [cytotoxic, single point] |  |
| CC(=O)Nc1ccc(-c2ccnc3c2CC(C(=O)NCCC(F)(F)F)O3)cc1 (stereo not given) | inconclusive [cytotoxic, single point] |  |
| O=S(=O)(NC1CCCCC1N1CCCCC1)c1ccccc1 (stereo not given) | inactive |  |
| C=CCOC(=O)C1=C(C)NC(SCC(=O)Nc2nccs2)=C(C#N)C1c1ccc(Cl)cc1 (stereo not given) | inconclusive [cytotoxic, single point] |  |
| Cc1nc(/C(N)=N/OC(=O)c2c(-c3ccccc3Cl)noc2C)cs1 | inconclusive [cytotoxic, single point] |  |
| O=C(NCCc1c[nH]c2ccccc12)C(=O)Nc1cc2c3c(c1)CC(=O)N3CCC2 | inconclusive [cytotoxic, single point] |  |
| O=C1c2ccccc2NC(c2cccc(F)c2)N1Cc1ccco1 (stereo not given) | inconclusive [cytotoxic, single point] |  |
| CCc1nc(N)nc(N)c1-c1ccc(N(C)Cc2ccccc2)c([N+](=O)[O-])c1 | active: 0.651 µM |  |
| Cc1[nH]n(-c2ccc([N+](=O)[O-])cc2)c(=O)c1C=NCCc1c[nH]c2ccccc12 | inconclusive [cytotoxic, partial curve] |  |
| CC(C)C[C@H](NC(=O)c1nc[nH]c1C(=O)N[C@@H](CC(C)C)C(=O)OC(C)(C)C)C(=O)OCc1ccccc1 | inconclusive [cytotoxic, single point] |  |
| CC(=O)Oc1ccc(-c2ccc(C(=O)OCC(=O)c3c(N)n(C)c(=O)n(C)c3=O)cc2)cc1 | inconclusive [cytotoxic, single point] |  |

— PubChem BioAssay AID686971 (National Center for Advancing Translational Sciences (NCATS), 2013)
